Source: paper PMC10957913, “GAS41 modulates ferroptosis by anchoring NRF2 on chromatin” (Nature Communications, 2024)
Results are given in words; binding and its absence hold for the method and conditions named. Binding seen in cells or lysates may run through a third protein. Some entries that bind do so weakly or less than the wild type. For some assays here: Where a sequence is shown, tags or fusion partners need not be part of it.

By UniProt entry, the sequences of proteins in these tests, tags left out. Where a name states a change or a piece, a line headed by the entry shows the natural chain unless it says otherwise. Residues count along the entry.
UniProt O95619: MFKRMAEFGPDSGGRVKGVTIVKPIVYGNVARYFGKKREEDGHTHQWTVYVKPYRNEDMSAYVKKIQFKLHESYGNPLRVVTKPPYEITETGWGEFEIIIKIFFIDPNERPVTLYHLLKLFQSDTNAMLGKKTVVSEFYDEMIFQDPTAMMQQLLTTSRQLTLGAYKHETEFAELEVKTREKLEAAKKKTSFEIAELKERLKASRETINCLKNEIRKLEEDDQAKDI
GAS41-amino acids 1-206 (YEATS domain, A box and partial coiled-coil motif): residues 1-206 of O95619
GAS41-amino acids 1-183 (YEATS domain and A box): residues 1-183 of O95619
GAS41-amino acids 1-160 (YEATS domain and A box): residues 1-160 of O95619
GAS41-amino acids 161-227 (complete coiled-coil motif): residues 161-227 of O95619
UniProt Q09472: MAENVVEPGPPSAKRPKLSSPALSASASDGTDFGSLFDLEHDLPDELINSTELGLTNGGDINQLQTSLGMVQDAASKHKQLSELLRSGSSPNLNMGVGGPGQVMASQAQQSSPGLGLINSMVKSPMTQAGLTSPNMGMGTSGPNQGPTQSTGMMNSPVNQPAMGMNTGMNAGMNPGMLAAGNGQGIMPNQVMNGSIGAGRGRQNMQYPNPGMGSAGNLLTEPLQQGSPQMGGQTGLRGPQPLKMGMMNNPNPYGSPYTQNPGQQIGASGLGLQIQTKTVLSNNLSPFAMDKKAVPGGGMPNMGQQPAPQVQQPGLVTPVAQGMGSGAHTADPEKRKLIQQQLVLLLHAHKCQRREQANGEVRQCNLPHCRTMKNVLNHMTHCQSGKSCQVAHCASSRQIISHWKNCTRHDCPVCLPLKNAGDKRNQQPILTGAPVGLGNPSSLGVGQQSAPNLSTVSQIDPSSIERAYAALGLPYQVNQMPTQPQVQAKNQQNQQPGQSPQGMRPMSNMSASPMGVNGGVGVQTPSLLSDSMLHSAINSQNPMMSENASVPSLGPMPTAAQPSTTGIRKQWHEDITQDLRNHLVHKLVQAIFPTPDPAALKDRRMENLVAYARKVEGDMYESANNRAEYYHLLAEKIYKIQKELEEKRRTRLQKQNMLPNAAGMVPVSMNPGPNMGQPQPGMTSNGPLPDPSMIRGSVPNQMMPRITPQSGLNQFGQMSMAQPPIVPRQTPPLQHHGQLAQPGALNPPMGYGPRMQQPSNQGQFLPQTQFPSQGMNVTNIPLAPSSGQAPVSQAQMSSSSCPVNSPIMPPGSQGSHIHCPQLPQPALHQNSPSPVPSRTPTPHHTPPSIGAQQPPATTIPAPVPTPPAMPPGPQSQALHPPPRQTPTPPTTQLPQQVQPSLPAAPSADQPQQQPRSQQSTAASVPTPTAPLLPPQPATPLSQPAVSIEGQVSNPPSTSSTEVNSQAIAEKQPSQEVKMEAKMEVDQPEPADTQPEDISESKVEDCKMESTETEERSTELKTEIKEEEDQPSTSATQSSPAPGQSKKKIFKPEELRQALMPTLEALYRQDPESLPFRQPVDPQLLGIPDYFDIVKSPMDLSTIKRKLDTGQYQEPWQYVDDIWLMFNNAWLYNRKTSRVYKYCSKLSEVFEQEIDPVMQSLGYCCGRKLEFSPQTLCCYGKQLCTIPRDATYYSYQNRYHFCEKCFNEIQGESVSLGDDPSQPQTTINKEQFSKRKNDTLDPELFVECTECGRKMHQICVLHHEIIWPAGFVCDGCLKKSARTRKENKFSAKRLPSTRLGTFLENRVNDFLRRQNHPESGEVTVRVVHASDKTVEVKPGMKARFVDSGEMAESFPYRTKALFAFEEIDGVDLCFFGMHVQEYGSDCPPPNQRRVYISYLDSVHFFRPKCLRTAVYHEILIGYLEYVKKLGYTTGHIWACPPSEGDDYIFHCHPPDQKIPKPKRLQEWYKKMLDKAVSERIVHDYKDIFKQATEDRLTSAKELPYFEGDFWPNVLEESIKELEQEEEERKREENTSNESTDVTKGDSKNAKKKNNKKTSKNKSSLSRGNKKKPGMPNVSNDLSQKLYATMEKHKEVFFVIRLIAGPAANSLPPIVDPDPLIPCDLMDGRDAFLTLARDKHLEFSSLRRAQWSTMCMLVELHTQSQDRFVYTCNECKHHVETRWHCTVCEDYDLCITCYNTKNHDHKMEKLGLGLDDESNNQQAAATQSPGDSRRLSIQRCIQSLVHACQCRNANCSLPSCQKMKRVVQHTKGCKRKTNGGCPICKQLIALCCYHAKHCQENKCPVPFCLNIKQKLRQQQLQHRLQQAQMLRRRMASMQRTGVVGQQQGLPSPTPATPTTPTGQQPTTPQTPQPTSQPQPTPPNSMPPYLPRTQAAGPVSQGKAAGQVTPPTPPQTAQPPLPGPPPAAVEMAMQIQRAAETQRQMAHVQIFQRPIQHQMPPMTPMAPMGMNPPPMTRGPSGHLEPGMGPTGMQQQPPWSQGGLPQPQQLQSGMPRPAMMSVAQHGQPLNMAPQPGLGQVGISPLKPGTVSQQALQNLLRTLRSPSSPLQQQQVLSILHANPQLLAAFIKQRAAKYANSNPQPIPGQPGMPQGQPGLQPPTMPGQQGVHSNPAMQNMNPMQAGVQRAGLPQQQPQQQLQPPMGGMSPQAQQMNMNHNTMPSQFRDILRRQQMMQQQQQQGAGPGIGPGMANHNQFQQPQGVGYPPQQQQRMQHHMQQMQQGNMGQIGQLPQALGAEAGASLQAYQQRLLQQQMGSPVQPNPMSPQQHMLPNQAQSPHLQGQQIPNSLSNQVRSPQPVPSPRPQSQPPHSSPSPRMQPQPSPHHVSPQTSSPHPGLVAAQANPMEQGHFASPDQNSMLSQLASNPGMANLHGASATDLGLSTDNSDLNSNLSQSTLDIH
UniProt Q92993: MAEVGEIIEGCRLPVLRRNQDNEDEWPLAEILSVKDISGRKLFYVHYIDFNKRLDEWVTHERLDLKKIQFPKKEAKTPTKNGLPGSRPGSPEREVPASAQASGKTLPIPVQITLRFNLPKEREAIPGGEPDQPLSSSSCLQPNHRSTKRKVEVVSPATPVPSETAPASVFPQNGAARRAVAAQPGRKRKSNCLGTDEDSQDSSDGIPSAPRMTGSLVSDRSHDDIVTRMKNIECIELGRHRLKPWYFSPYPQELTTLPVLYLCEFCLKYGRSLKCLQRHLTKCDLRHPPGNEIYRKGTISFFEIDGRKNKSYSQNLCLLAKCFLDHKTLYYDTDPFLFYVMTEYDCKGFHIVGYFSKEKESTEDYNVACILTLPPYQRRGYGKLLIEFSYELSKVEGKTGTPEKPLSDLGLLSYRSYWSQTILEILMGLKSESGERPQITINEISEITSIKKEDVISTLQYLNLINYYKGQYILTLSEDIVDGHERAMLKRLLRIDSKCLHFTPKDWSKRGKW
UniProt Q92793: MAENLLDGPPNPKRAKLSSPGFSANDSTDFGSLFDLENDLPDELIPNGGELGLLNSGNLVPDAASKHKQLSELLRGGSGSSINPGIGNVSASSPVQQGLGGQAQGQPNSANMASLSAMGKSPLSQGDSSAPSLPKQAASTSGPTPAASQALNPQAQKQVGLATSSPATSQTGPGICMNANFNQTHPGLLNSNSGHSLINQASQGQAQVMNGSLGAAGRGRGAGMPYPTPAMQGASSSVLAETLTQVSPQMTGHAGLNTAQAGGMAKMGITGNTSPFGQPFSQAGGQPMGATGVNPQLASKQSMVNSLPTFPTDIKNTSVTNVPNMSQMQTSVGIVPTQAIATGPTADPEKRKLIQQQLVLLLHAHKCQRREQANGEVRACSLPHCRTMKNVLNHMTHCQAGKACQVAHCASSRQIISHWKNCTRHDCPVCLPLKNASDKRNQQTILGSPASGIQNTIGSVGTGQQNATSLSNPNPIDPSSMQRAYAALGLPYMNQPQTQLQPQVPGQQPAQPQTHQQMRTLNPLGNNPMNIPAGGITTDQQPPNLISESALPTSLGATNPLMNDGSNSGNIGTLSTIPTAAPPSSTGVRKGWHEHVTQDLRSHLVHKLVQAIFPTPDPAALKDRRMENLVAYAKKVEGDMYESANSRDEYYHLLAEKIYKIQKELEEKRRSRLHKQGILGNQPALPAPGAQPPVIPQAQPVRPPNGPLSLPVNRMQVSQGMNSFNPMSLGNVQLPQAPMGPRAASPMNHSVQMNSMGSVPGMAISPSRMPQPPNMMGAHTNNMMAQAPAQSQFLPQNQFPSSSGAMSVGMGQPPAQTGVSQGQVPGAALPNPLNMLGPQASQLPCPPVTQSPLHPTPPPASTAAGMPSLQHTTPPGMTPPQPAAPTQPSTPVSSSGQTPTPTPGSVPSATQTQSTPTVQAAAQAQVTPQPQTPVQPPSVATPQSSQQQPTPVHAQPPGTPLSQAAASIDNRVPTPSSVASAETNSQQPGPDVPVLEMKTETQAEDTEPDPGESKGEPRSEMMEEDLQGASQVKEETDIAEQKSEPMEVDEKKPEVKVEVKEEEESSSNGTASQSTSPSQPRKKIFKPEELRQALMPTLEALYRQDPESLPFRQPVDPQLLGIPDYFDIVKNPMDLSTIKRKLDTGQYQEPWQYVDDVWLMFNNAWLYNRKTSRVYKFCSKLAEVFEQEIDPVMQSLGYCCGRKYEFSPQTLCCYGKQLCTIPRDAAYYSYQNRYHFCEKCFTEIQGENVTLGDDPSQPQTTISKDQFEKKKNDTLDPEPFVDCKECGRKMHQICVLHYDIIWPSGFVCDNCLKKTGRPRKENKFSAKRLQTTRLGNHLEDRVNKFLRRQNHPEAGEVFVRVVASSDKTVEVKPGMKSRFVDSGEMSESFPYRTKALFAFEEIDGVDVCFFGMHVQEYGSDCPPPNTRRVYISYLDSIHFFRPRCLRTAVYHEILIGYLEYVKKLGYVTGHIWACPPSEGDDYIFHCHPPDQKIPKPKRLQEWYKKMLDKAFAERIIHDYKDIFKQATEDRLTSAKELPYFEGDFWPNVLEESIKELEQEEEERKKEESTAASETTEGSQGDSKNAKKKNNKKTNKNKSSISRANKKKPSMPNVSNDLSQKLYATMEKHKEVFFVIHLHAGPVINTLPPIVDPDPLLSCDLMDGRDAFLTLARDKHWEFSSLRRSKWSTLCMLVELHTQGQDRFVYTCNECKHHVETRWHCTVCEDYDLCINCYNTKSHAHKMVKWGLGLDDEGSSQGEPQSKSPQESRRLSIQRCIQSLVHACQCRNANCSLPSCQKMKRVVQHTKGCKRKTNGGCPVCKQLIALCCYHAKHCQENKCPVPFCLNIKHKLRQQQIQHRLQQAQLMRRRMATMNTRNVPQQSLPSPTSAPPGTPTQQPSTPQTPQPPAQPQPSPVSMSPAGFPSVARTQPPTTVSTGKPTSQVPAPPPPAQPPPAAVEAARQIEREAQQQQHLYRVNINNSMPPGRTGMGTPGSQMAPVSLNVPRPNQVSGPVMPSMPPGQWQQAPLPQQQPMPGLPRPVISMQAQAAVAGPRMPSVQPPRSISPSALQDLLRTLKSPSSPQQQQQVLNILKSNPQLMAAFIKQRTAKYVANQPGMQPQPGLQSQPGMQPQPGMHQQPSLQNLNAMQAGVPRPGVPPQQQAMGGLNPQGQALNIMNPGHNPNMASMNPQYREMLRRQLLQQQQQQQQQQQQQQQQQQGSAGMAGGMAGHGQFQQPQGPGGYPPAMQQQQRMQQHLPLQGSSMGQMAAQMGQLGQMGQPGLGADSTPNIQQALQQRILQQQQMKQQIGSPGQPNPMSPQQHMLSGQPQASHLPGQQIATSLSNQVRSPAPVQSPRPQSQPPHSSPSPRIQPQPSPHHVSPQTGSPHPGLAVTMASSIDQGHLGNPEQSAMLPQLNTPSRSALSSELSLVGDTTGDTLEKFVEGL

Key:
[1] = biological target: T1, NRF2, endogenous in A549 (human (endogenous in A549)) (UniProt Q16236); test: co-IP; endogenous proteins of A549 cells; GAS41 antibody, NRF2 antibody or control IgG, protein A/G agarose; western blot
T1 sequence: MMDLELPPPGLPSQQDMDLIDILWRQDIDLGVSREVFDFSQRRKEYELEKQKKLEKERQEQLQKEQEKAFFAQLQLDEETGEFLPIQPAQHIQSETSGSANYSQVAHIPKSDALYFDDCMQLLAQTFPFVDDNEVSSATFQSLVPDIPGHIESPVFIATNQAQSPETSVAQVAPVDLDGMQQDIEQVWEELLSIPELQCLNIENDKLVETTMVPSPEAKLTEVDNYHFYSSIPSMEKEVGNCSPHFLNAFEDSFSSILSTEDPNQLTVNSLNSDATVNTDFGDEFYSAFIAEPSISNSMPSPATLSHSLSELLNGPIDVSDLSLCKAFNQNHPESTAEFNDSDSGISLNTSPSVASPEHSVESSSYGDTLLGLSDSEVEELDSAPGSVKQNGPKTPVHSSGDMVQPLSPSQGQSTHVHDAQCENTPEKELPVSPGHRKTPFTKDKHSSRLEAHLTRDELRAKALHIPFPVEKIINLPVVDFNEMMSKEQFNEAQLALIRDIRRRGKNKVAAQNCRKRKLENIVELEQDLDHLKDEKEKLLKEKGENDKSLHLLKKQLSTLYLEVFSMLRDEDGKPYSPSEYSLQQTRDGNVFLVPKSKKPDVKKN

[2] = biological target: T2, Flag-NRF2 (UniProt Q16236); test: co-IP; HEK293T cells transfected with NRF2 and GAS41 (wild type, fragments or point mutants) plasmids; lysis in BC150 buffer (150 mM NaCl, 0.4% NP-40), Flag M2, HA or streptavidin agarose overnight at 4 °C, washes with BC200 and BC150; western blot
T2 sequence: T1 sequence

[3] = biological target: GAS41-amino acids 1-160 (YEATS domain and A box) (human) (UniProt O95619); test: co-IP; Supplementary Fig. 6a, b: GAS41 regions with TRRAP or TIP60; legend and cells not shown
[4] = biological target: T2, Flag-NRF2; test: co-IP; Supplementary Fig. 6c, d: NRF2 with CBP or p300, without or in the presence of GAS41; legend and cells not shown
[5] = biological target: GAS41-amino acids 1-183 (YEATS domain and A box) (human) (UniProt O95619); test: co-IP; HEK293T cells transfected with NRF2 and GAS41 (wild type, fragments or point mutants) plasmids; lysis in BC150 buffer (150 mM NaCl, 0.4% NP-40), Flag M2, HA or streptavidin agarose overnight at 4 °C, washes with BC200 and BC150; western blot
[6] = biological target: GAS41 W93A mutant (human) (UniProt O95619); test: as above
[7] = biological target: GAS41-amino acids 161-227 (complete coiled-coil motif) (human) (UniProt O95619); test: as above
[8] = biological target: HA-GAS41 (human) (UniProt O95619); test: as above
[9] = biological target: GAS41-amino acids 1-206 (YEATS domain, A box and partial coiled-coil motif) (human) (UniProt O95619); test: as above
[10] = biological target: GAS41-amino acids 1-160 (YEATS domain and A box) (human) (UniProt O95619); test: as above
[11] = biological target: SFB (S protein tag, Flag tag, and Streptavidin binding peptide)-GAS41 (human) (UniProt O95619); test: co-IP; SFB-GAS41 stable HEK293T cell line; two-step affinity purification (first streptavidin agarose beads, then S-protein agarose beads); western blot
[12] = biological target: GAS41, endogenous in A549 (human (endogenous in A549)) (UniProt O95619); test: co-IP; endogenous proteins of A549 cells; GAS41 antibody, NRF2 antibody or control IgG, protein A/G agarose; western blot

Molecule: GAS41, endogenous in A549 (from UniProt O95619 1-227)
- binding [1]: binds

Molecule: HA-GAS41 (from UniProt O95619 1-227)
- binding [2]: binds

Molecule: TRRAP (from UniProt Q9Y4A5 1-3859)
- binding [3]: binds

Molecule: p300 (from UniProt Q09472 1-2414)
- binding [4]: binds

Molecule: TIP60 (from UniProt Q92993 1-513)
- binding [3]: binds

Molecule: CBP (CREB binding protein) (from UniProt Q92793 1-2442)
- binding [4]: binds

B1: Flag-NRF2 (protein, UniProt Q16236 1-605)
chain: T1 sequence
- binding [5]: no binding
- binding [6]: binds
- binding [7]: binds
- binding [8]: binds
- binding [9]: no binding
- binding [10]: no binding

B2: NRF2 in the SFB-GAS41 stable HEK293T cell line (protein, UniProt Q16236 1-605)
chain: T1 sequence
- binding [11]: binds

B3: NRF2, endogenous in A549 (protein, UniProt Q16236 1-605)
chain: T1 sequence
- binding [12]: binds
